This passage reports inhibition results from PubChem BioAssay AID2071 (Sanford-Burnham Center for Chemical Genomics, 2009).

Molecules are shown by their SMILES. The list shows a part of the results. These are further read-outs of the screen, such as a control signal, another cell line or another target. No call is given for them. Compounds called inactive in the main read-out are mostly missing here.

The experiment is described as follows: NALP1 inflammasome inhibitors in reconstituted yeast, colorimetric, S. cerevisiae, triplicate retest (AID 2071). As to conditions: S. cerevisiae NALP1/ASC/caspase-1 growth, X-gal OD620, 72 h, at 20 µM, stronger effect = higher value.
Usually inhibition stands for the relative decrease from the control value, in per cent. Regarding `COc1ccc(CNCCC(c2ccc(F)cc2)c2ccc(OC)cc2)cc1` (centres undefined), the inhibition is 92.5%. With `O=c1sc(Nc2ccccc2)nc2ccsc12` the figure was 66.5%. As to `CCN1CCN(C(=S)Nc2ccc(Cl)c(Cl)c2)CC1`, the inhibition is 62.7%. The figure for `COc1ccc(C2NCCc3c2[nH]c2ccccc32)cc1CSc1nc2ccccc2s1` (centres undefined) is 110%. The figure for `CC(C)c1ccc(CN2CCN(C(=O)CCl)CC2)cc1` is 98.5%; for `O=C(CN1CCSC1=NCc1ccccc1)c1ccc(Cl)c(Cl)c1` it is 66%. For `Cc1ccc2cc3cc(C(=O)NCCCN4CCc5ccccc5C4)oc3nc2c1`, the inhibition was found to be 56.2%. With `Cc1cccc(Cn2c(C(C)(C)C)cc3cccnc32)c1` the figure was 54.9%; with `Oc1c(CN2CCCCC2)cc(Br)c2cccnc12`, 105%; with `CC(C)CC(=O)/C(=C\c1ccc(Cl)cc1Cl)n1cncn1`, 85.2%. With `CSc1ccc(/C=C/C(=O)c2ccc(O)cc2)cc1` the figure was 50.9%; with `CCCCCCCCCCCCCCCC[n+]1cccc(C(=O)N(CC)CC)c1`, 103%; with `CCOC(=O)C1=Nc2ccccc2C1=[N+]=[N-]`, 102%.

In the case of `Nc1c2c(nc3sc4c(c13)CCCCC4)CCCCC2`, the inhibition came out at 71.2%. The figure for `N#C/C(=C\c1ccc([N+](=O)[O-])o1)c1nc2ccccc2[nH]1` is 76.3%; for `COc1ccc(CNCC(O)(c2ccccc2)c2ccc(Cl)cc2)cc1` (centres undefined) it is 63.7%. As to `O=[N+]([O-])c1ccc(-c2ccn[nH]2)o1`, the inhibition worked out at 69.1%.

As to `CCOC(=O)C1CCCN(C2CC(=O)N(c3cccc(C(F)(F)F)c3)C2=O)C1` (centres undefined), the inhibition was found to be 106%. The figure for `O=C(CCl)Nc1cc(-c2ccccc2)nn1-c1ccccc1` is 51.1%; for `Cc1cc(N2C(=O)C=CC2=O)c([N+](=O)[O-])cc1C` it is 89.8%. For `C#C[C@]1(O)CC[C@H]2[C@@H]3CCc4cc(O)ccc4[C@H]3CC[C@@]21C`, the inhibition stood at 52.9%. As to `CN1CCN(C(=S)Nc2ccc(Cl)c(Cl)c2)CC1`, the inhibition worked out at 59.6%. The figure for `Fc1ccc(Nc2ccnc(Nc3ccc(F)cc3)n2)cc1` is 62.5%; for `O=C(O)C1C2C=CC(C2)C1C(=O)NCc1ccc(Cl)c(Cl)c1` (centres undefined) it is 51.3%. Regarding `Cc1nc2ccc(NC(=O)c3cc([N+](=O)[O-])cc([N+](=O)[O-])c3Cl)cc2s1`, the inhibition stood at 89.7%. On to `Cc1cccc(N2C(=O)CC(Sc3ccccc3C(=O)O)C2=O)c1` (centres undefined), for which the inhibition was determined as 110%. `O=C1C=CC(=O)N1CCCCCCN1C(=O)C=CC1=O`: the inhibition was determined as 101%. With `Clc1ccc(Nc2ccc(NCc3ccccc3)nn2)cc1` the figure was 91.6%; with `O=C(Nc1ccccc1)N1CCc2ccccc2C1`, 65.5%.

With `CCOc1ccc(C(=O)C(CCC(CN(C)C)C(=O)c2ccc(OCC)cc2)CN(C)C)cc1` (centres undefined), the inhibition stood at 90.4%. The figure for `NNC(=S)NCc1cccnc1` is 71%. The figure for `CCOC(=O)c1c(-c2ccccc2)nc2ccccn12` is 111%; for `O=C(Nc1cccc(N=Cc2cc(Br)cc(Br)c2O)c1)c1ccco1` it is 64.8%. Regarding `Cc1cc2ncn(/N=C/c3ccc([N+](=O)[O-])s3)c2cc1C`, the inhibition was 78.1%. With `CCN1/C(=C/c2ccc3cc(C)ccc3[n+]2CC)Sc2ccccc21` the figure was 105%; with `COC(=O)c1ccccc1SC1CC(=O)N(c2ccccc2)C1=O` (centres undefined), 94.9%; with `CC1CCCN(CCCOc2ccc(Cl)cc2Br)C1` (centres undefined), 54%. With `O=CC1=C(c2ccccc2)Oc2ccccc2O1` the figure was 61%. On to `CN1CCc2cccc3c2[C@@H]1Cc1ccc(O)c(O)c1-3`, for which the inhibition stood at 108%. On to `O=C(Cc1ccc(Cl)cc1)Oc1cccc2cccnc12`, for which the inhibition is 91.6%. The figure for `O=C1C=CC(=O)N1c1ccc(OC(F)F)cc1` is 116%. The figure for `CCCNC(=O)c1nnsc1S(=O)c1ccc(Cl)cc1` (centres undefined) is 111%; for `O=C(Oc1cccc2cccnc12)c1ccc(N2C(=O)C3C4CCC(C4)C3C2=O)cc1` (centres undefined) it is 73.2%. With `CNc1nc(SCc2ccc(C)cc2)nc2c1CCCC2` the figure was 102%; with `Cc1cc(C)c(S(=O)(=O)Nc2cc(SCC(=O)O)c(O)c3ccccc23)cc1C`, 62.5%; with `CN1CCN(S(=O)(=O)c2ccc(NC(=S)NC(=O)C(C)(C)C)cc2)CC1`, 73.6%.

Regarding `Clc1cccc(OCCN2CCN(CCOc3cccc(Cl)c3)CC2)c1`, the inhibition is 100%. The figure for `O=S(=O)(CC(CN1CCCC1)N1CCCC1)c1ccc2ccccc2c1` (centres undefined) is 99.6%; for `Oc1c(I)cc(Cl)c2cccnc12` it is 60.4%; for `Cc1ccc(N2C(=O)CC(Sc3ccccc3C(=O)O)C2=O)cc1` (centres undefined) it is 114%. With `CCCOc1ccc(C(=O)C(CN2CCCC2)c2ccccc2)cc1` (centres undefined) the figure was 89.3%; with `OC(CN1CCCCC1)Cn1c2ccc(Cl)cc2c2cc(Cl)ccc21` (centres undefined), 103%; with `CCC(C)c1ccc(OCCn2ccnc2)cc1` (centres undefined), 72.5%. With `COc1ccc2cnn(-c3ccc(C)cc3)c(=O)c2c1OC` the figure was 53.6%. Take `CC(=O)Nc1sc2c(c1-c1nc3ccccc3s1)CCN(C(C)C)C2`: the inhibition stood at 105%. `CN(C)c1ccc(N2C(=O)CC(Sc3ccccc3C(=O)O)C2=O)cc1` (centres undefined): the inhibition stood at 112%.

As for `Cc1ccn2cc(-c3ccc(NC(=O)c4ccco4)cc3)nc2c1`, the inhibition turned out to be 57.9%.

On to `O=[N+]([O-])c1cc(S(=O)(=O)N2CCCCCC2)ccc1F`, for which the inhibition is 52.6%. The figure for `CN(C)c1ccc(N=C/C=C2/N(C)c3ccccc3C2(C)C)cc1` is 83.1%; for `CCOc1ccc(C(=O)C(CN2CCOCC2)c2ccccc2)cc1` (centres undefined) it is 108%. The figure for `CCOc1cc(CNC2CCCC2)cc(Cl)c1OCc1ccc(F)cc1` is 105%; for `Cc1ccccc1Nc1cc(C)c2c(O)cccc2n1` it is 56.4%.

With `Clc1ccc2c(N/N=C/c3cccc(Br)c3)ccnc2c1`, the inhibition is 59%. With `C1CCC(C(CC2CCCCN2)C2CCCCC2)CC1` (centres undefined) the figure was 106%; with `Clc1ccc2c(N/N=C/c3ccc(Br)cc3)ccnc2c1`, 56.1%.

As for `COc1ccc(NCc2ccc([N+](=O)[O-])s2)cc1`, the inhibition was 74.5%. The figure for `COc1ccc(CCNCc2ccc(OCc3ccccc3)cc2)cc1` is 107%; for `O=C(NN1C(=O)c2cc(Br)ccc2NC1c1cc(Br)cc(Br)c1O)c1ccncc1` (centres undefined) it is 71.4%. The figure for `O=C(O)c1ccc(S(=O)(=O)/N=C2\C=C(Nc3ccccc3F)C(=O)c3ccccc32)cc1` is 66%. The figure for `COc1cccc(F)c1C(C[N+](=O)[O-])c1c(N)n(C)c(=O)n(C)c1=O` (centres undefined) is 117%. Consider `CN(C)CCCN(C(=O)c1ccc2c(c1)CCCC2)c1nc2ccc(F)cc2s1`, for which the inhibition turned out to be 101%. With `O=C(Nc1nc(-c2ccccn2)cs1)c1ccc(Cl)s1` the figure was 82.7%; with `Cc1ccc2c(Cl)c(C)c(N3CCCCC3)nc2n1`, 56.8%.

For `COC(=O)c1ccc(Oc2ccc(S(=O)(=O)N3CCCCC3)cc2N)cc1`, the inhibition is 63.8%. The figure for `CCOC(=O)COc1ccc2ccccc2c1/C=C/[N+](=O)[O-]` is 68.9%. `Cc1ccc(/C=N/Nc2ccnc3cc(Cl)ccc23)c(C)c1`: the inhibition is 105%. The figure for `CCCCCCCCCCCCCCCCn1cc[n+](CC(C)=O)c1` is 101%; for `CCOCCCNCc1ccc(OCc2ccccc2Cl)cc1` it is 57.6%. The figure for `CCCCCOc1ccc(Br)cc1CSC(=N)N` is 85.3%; for `CC(NCCC(c1ccccc1)c1ccccc1)c1ccccc1` (centres undefined) it is 91.2%. With `CCOC(=O)/C=C/C(=O)Nc1nccs1` the figure was 55.2%. As to `Cc1ccc2sc(N(CCCN(C)C)C(=O)CCS(=O)(=O)c3ccccc3)nc2c1C`, the inhibition was determined as 106%. With `CNC(=O)c1nnsc1S(=O)c1ccc(Cl)cc1` (centres undefined) the figure was 108%. With `COc1ccccc1OCC(=O)NCCSCc1cccc(Cl)c1` the figure was 53.6%; with `COCCCN(CCCN)Cc1ccco1`, 81.1%; with `CCCCCOc1ccc(Br)cc1/C(C)=N/NC1=NCCN1`, 105%. For `COc1ccc2[nH]c3c(C)c4ccncc4c(C)c3c2c1`, the inhibition is 97.2%. The figure for `Cc1ccc(NC(=O)/C=C\C(=O)NCC(=O)O)cc1C` is 112%.

For the molecule `CN(C)CCN(C(=O)/C=C/c1cccs1)c1nc2c(F)cc(F)cc2s1`, the inhibition was 80.7%.

Regarding `CC[n+]1c(/C=C/N(C)c2ccccc2)n(-c2ccccc2)c2ccc(-c3nc4ccccc4s3)cc21`, the inhibition stood at 103%. With `Cc1cc(Cl)c(OCCCn2ccnc2)c(Br)c1` the figure was 64.3%; with `COc1ccc(OC)c(S(=O)(=O)Nc2ccc(O)c3ccccc23)c1`, 105%. The figure for `Cc1cccc(/C=C/C(=O)c2ccc(NC3=NCCCS3)cc2)c1` is 102%; for `COc1ccccc1C(C[N+](=O)[O-])c1c(N)n(C)c(=O)n(C)c1=O` (centres undefined) it is 114%. With `CC1CCCN(CCOCCOc2ccc(Br)cc2Cl)C1` (centres undefined) the figure was 54.3%; with `N#Cc1ccc(NC(=O)Nc2ccc(Cl)cc2)cc1`, 72.4%. Take `CCCCCCCCCCCCCCCCn1cc[n+](C)c1`: the inhibition amounted to 100%. With `Cc1[nH]n(-c2ccccc2)c(=O)c1C(C[N+](=O)[O-])c1ccc(Cl)cc1` (centres undefined) the figure was 96.6%; with `COc1ccc(NCc2ccc([N+](=O)[O-])s2)c(OC)c1`, 58.6%; with `CN(C)CCCN(C(=O)c1ccc2c(c1)CCCC2)c1nc2ccc(Cl)cc2s1`, 109%.

On to `CC[n+]1c(/C=C2\Sc3ccccc3N2C)ccc2cccc(C)c21`, for which the inhibition came out at 101%. As for `COc1ccccc1N1CCN(CCCCCCOc2ccc(F)cc2)CC1`, the inhibition is 60.6%. On to `O=C(N1CCN(c2ccccn2)CC1)C(Cl)(Cl)Cl`, for which the inhibition stood at 57.2%. With `Cn1ncc(S(=O)(=O)Cc2ccccc2)c(Cl)c1=O` the figure was 114%; with `Cc1onc(-c2ccccc2Cl)c1C(=O)N1C=CC(C(F)(F)F)=NCC1`, 81.3%; with `Cc1sc(N)nc1-c1ccc(Oc2ccccc2)cc1`, 54.3%. The figure for `CCOC(=O)CNC(c1ccccc1)c1cc(Br)ccc1NC(=O)CCN1CCOCC1` (centres undefined) is 92.6%; for `CCCCCCC(=O)N(O)C1CC(=O)N(Cc2ccccc2)C1=O` (centres undefined) it is 51.1%. On to `CCCCCCCCCCCCCCCC[n+]1cccc2ccccc21`, for which the inhibition worked out at 83.3%.

With `CCOC(=O)c1ccc(N2C(=O)CC(N3CCCC(C)C3)C2=O)cc1` (centres undefined), the inhibition worked out at 85.5%. With `CC(C)(C)C1=CC(=O)C(=O)C(C(C)(C)C)=C1` the figure was 82%; with `O=C1CSC(=S)N1c1cccc(O)c1`, 108%.

As for `O=C(CCN1CCc2ccccc2C(c2ccccc2)C1)c1ccc2c(c1)OCCO2` (centres undefined), the inhibition was 61.6%.

`O=C(N/N=C/c1cc(Cl)ccc1O)c1ccc(Br)cc1`: the inhibition came to 51.8%. With `Cn1nc(-c2ccc(Cl)cc2)nc2c(=O)n(C)c(=O)nc1-2` the figure was 98%; with `COCCN=C1Sc2nc3ccc(C)cc3cc2CN1Cc1ccco1`, 62.5%; with `COc1cc(NC(=O)c2cccs2)cc(OC)c1`, 71.3%. As to `CN1c2ccccc2Sc2cc(N)ccc21`, the inhibition is 59.9%. With `Cc1nc(C)c(/C(O)=C/c2nc3ccccc3oc2=O)s1`, the inhibition stood at 59.3%.
